Test results: PubChem BioAssay AID1347073 (National Center for Advancing Translational Sciences (NCATS), 2019)
About 200 (0.44%) of roughly 45,000 compounds were called active. About 7% were inconclusive and are not listed. Calls follow the shape of the dose curve; as a rule, active = well fitted activation curve with a large enough effect; inconclusive = small, poorly fitted or top-dose-only effect; inactive = no such curve, though single readings can be large or run the other way. The list shows a part of the results.

Test: qHTS of TDP-43 Inhibitors: NCGC Sytravon Library Screen; also: 0% is about no effect; nearly all actives have a fitted effect of over 55% in size
Conditions: yeast TDP-43 toxicity rescue, BacTiter-Glo growth, 24 h; series mostly up to 46.1 µM; growth rescue (activation): at the top concentration
Summary of the method: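 TDP-43-expressing yeast, pregrown in raffinose, seeded at OD600 0.02 in galactose medium with compound for 24 hr at 30 deg C. Growth read by BacTiter-Glo luminescence, so rescue of toxicity appears as activation.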
For `CC1(C#CC[N+]2(C)CCCCC2)CCC2C(O1)c1ccccc1OC2(C)C` (stereo not drawn), the “growth rescue (activation)” value was inactive: 5.99%. With `O=Cc1ccc(-n2cccn2)cc1` the “growth rescue (activation)” value was inactive: 7.58%. With `CC(C(=O)NCc1ccccc1Cl)N1C(=O)c2ccccc2C1=O` (stereo not drawn) the “growth rescue (activation)” value was inactive: 0.181%. In the case of `O=C(NC1CCCCC1)c1cc(S(=O)(=O)N2CCOCC2)c(Cl)cc1Cl`, the “growth rescue (activation)” value is reported as inactive: -28.7%. For `Cc1cc(C)n(CCNS(=O)(=O)c2ccc(C)c(C)c2)n1`, the “growth rescue (activation)” value was inactive: 9.41%. In the case of `c1cc(-c2ccsc2)n2cnnc2c1`, the “growth rescue (activation)” value is reported as inactive: -3%. With `Cc1occc1C(=O)N/N=C/C=C/c1ccccc1` the “growth rescue (activation)” value was inactive: -6.79%. With `CC1(C)CC(=O)C(CC2CCCCC2=O)C(=O)C1` (stereo not drawn) the “growth rescue (activation)” value was inactive: 6.02%. With `O=C(CSCc1ccc(Cl)cc1Cl)Nc1ccccc1C(=O)Nc1ccc(C(=O)O)cc1` the “growth rescue (activation)” value was inactive: 2.14%. For `Cc1ccccc1C(=O)Nc1nnc(S(=O)(=O)N2CCCCCC2)s1`, the “growth rescue (activation)” value was inactive: 9.05%. For `O=C(NCCCNC(=O)c1ccccc1Cl)c1cnccn1`, the “growth rescue (activation)” value was inactive: -8.14%. In the case of `CCc1ccccc1NC(=O)COc1ccc2c(=O)c(Oc3cc(C)ccc3C)coc2c1`, the “growth rescue (activation)” value is reported as inactive: -7.67%. With `COc1ccccc1-n1cc(-c2ccc(Cl)cc2)[nH]c1=O` the “growth rescue (activation)” value was inactive: -1.02%. In the case of `O=C(NCC1CCCO1)C(=O)N/N=C/c1c(F)cccc1Cl` (stereo not drawn), the “growth rescue (activation)” value is reported as inactive: 16.4%. With `N/C(=N\OC(=O)CCCOc1ccccc1)c1ccccn1` the “growth rescue (activation)” value was inactive: -7.24%. With `O=C(CNCCc1ccc(Cl)cc1)Nc1ccc(C(=O)N2CCCCC2)cc1` the “growth rescue (activation)” value was inactive: 5.79%. For `COc1ccc(-c2cc(C)nc(SCc3cccc(C(=O)O)c3)n2)cc1`, the “growth rescue (activation)” value was inactive: 10.2%. In the case of `O=C(CCSCCc1ccccn1)Nc1c(F)c(F)c(F)c(F)c1F`, the “growth rescue (activation)” value is reported as inactive: 19.2%. With `O=S(=O)(c1ccc(Cl)cc1)N1CCN(Cc2ccncc2)CC1` the “growth rescue (activation)” value was inactive: -7.85%. For `c1ccc2c3c([nH]c2c1)C(C1CCCCC1)N(Cc1ncc[nH]1)CC3` (stereo not drawn), the “growth rescue (activation)” value was inactive: 1.92%. With `Cc1ccc(S(=O)(=O)NC(=O)C2(C)CCN2C(=O)CCc2ccc(Cl)cc2Cl)nc1` (stereo not drawn) the “growth rescue (activation)” value was inactive: 1.46%. With `COc1ccc(C2(CNC(=O)c3cc(OC)c(OC)c(OC)c3)CCCC2)cc1OC` the “growth rescue (activation)” value was inactive: 5.4%. For `COc1ccc(OC)c(CCNC(=O)CCc2cn(C)c3ccccc23)c1`, the “growth rescue (activation)” value was inactive: 0.899%. With `O=C(Cn1cnc2cc([N+](=O)[O-])ccc2c1=O)N1CCN(S(=O)(=O)c2ccccc2)CC1` the “growth rescue (activation)” value was inactive: -9.34%. For `Cc1ccccc1NC(=O)CSc1nc(N)c2c3c(sc2n1)CSC(C)(C)C3`, the “growth rescue (activation)” value was inactive: 22.3%. With `Cc1ccnc(SCC(=O)N2CCc3ccccc32)n1` the “growth rescue (activation)” value was inactive: 4.68%. For `O=C(O)CCn1cc(/C=N/O)c(-c2cccc([N+](=O)[O-])c2)n1`, the “growth rescue (activation)” value was inactive: -3.07%. In the case of `Cc1nn(C(C)C(=O)N2CCCCC2)c(=O)c2c1sc1ccccc12` (stereo not drawn), the “growth rescue (activation)” value is reported as inactive: 7.57%. In the case of `COc1cccc(-c2coc3c(C)c4oc(=O)c(CCC(=O)O)c(C)c4cc23)c1`, the “growth rescue (activation)” value is reported as inactive: -87%. In the case of `CCc1nc2c(OCc3ccc(C(F)(F)F)cc3)cccn2c1N(C)C(=O)C(C)C`, the “growth rescue (activation)” value is reported as inactive: 2.1%. In the case of `Cn1c(COc2ccc(Br)cc2)nnc1SC1CCc2ccccc2C1=O` (stereo not drawn), the “growth rescue (activation)” value is reported as inactive: 13.1%. For `Cc1cccc(C(=O)NCc2nnc(SCC(=O)Nc3nnc(C)s3)n2C)c1`, the “growth rescue (activation)” value was inactive: -21.3%. For `CCOC(=O)c1cnc2ccccc2c1Nc1ccc(C(=O)O)cc1`, the “growth rescue (activation)” value was inactive: 9.52%. For `Cc1noc(C)c1COC(=O)COc1ccc(C#N)cc1`, the “growth rescue (activation)” value was inactive: 13.9%. With `O=C(NNC(=O)C12CC3CC(CC(C3)C1)C2)c1ccco1` the “growth rescue (activation)” value was inactive: 1.66%. With `O=C(NCC1CCN(Cc2ccccc2Cl)CC1)Nc1cccc(Cl)c1` the “growth rescue (activation)” value was inactive: -5.33%. With `Cc1cccc(/C=N/NC(=O)c2cccc([N+](=O)[O-])c2)n1` the “growth rescue (activation)” value was inactive: -9.97%. With `COC(=O)c1cc(Cn2nc(C(=O)O)c3ccccc3c2=O)oc1C` the “growth rescue (activation)” value was inactive: -1.22%. For `COCCN(C(=O)CSc1nc2ccc(C)cc2[nH]1)c1c(N)n(Cc2ccccc2)c(=O)[nH]c1=O`, the “growth rescue (activation)” value was inactive: 5.05%. With `CCNC(=O)c1ccc(N(C)S(=O)(=O)c2cccs2)cc1` the “growth rescue (activation)” value was inactive: 20%. For `O=C(Nc1ccccc1F)c1ccc(Cn2cc(Cl)cn2)cc1`, the “growth rescue (activation)” value was inactive: 9.96%. In the case of `CN(Cc1ccno1)Cc1cn(C)nc1-c1ccc(Oc2ccccc2)cc1`, the “growth rescue (activation)” value is reported as inactive: 11.6%. With `COc1ccc(Br)c(C(=O)Nc2nc3ccccc3[nH]2)c1` the “growth rescue (activation)” value was inactive: -7.89%. For `COc1ccc(-c2nc(NC(=O)c3ccc(OCC(=O)Nc4ccc(F)cc4)c(OC)c3)sc2C)cc1`, the “growth rescue (activation)” value was inactive: -23.5%. In the case of `O=C(/C=C/c1ccc2c(c1)OCO2)N1CCN(c2ccc(Cl)cc2)CC1`, the “growth rescue (activation)” value is reported as inactive: 12%. In the case of `O=Cc1c(N2CCN(CCO)CC2)nc2ccccn2c1=O`, the “growth rescue (activation)” value is reported as inactive: -4.58%. For `CC1=NNC(=O)C1CC(=O)N/N=C/C=C/c1ccccc1` (stereo not drawn), the “growth rescue (activation)” value was inactive: 11%. For `CCN(Cc1ccccc1)C(=O)COC(=O)[C@@H]1CCCN1C(=O)c1cccs1`, the “growth rescue (activation)” value was inactive: 8.94%. With `Cc1cc(C)n(CCNCc2c(C(=O)N3C[C@@H](C)O[C@@H](C)C3)nc3ccc(Cl)cn23)n1` the “growth rescue (activation)” value was inactive: 10.2%. In the case of `CCCc1ccc(OCCNC(=O)C2CCCCC2)cc1`, the “growth rescue (activation)” value is reported as inactive: 10.9%. In the case of `CCCNC(=O)c1cc(C2CCCCN2C(=O)c2cccs2)on1` (stereo not drawn), the “growth rescue (activation)” value is reported as inactive: 4.36%. In the case of `O=C(COC(=O)/C=C/c1ccc(F)cc1)NC1CCCCCC1`, the “growth rescue (activation)” value is reported as inactive: 8.94%. For `COc1cccc(CN(C)CC(=O)Nc2cc(S(=O)(=O)N3CCCC3)ccc2Cl)c1OC`, the “growth rescue (activation)” value was inactive: 1.97%. In the case of `O=C(NCc1ccco1)/C(=C\c1ccco1)NC(=O)c1ccccc1Cl`, the “growth rescue (activation)” value is reported as inactive: 2.89%. In the case of `CCc1nnc(NS(=O)(=O)c2ccc(NC(=O)c3ccc(S(=O)(=O)N(CC)CC)cc3)cc2)s1`, the “growth rescue (activation)” value is reported as inactive: 12.6%. For `Cc1cc([N+](=O)[O-])nn1Cc1noc(C(=O)NCc2ccc3c(c2)OCO3)n1`, the “growth rescue (activation)” value was inactive: 13.3%. In the case of `CCn1c(SCC(=O)NC2CCCC2)nc2c1c(=O)n(C)c(=O)n2C`, the “growth rescue (activation)” value is reported as inactive: 10.3%. With `O=C(NCc1ccccn1)C1CCN(S(=O)(=O)c2cc(Cl)ccc2Cl)CC1` the “growth rescue (activation)” value was inactive: 10.9%. For `O=C(O)c1ccccc1-c1ccccc1C(=O)Nc1nc2ccccc2s1`, the “growth rescue (activation)” value was inactive: 11.6%. With `COCCCNC(=O)Cn1cnc2sc(C)c(S(=O)(=O)N3CCN(c4ccccc4OC)CC3)c2c1=O` the “growth rescue (activation)” value was inactive: -9.3%. With `O=C(COC(=O)C1CCN(S(=O)(=O)c2ccc3c(c2)OCCO3)CC1)Nc1ccccc1OC(F)F` the “growth rescue (activation)” value was inactive: 6.21%. For `CC1=C(C(=O)OCCCCCl)C(c2cc3c(cc2Br)OCO3)NC(=O)N1` (stereo not drawn), the “growth rescue (activation)” value was inactive: -2.28%. With `COc1ccc(/C(C)=N/NC(=O)CNC(=O)C2COc3ccccc3O2)c(OC)c1` (stereo not drawn) the “growth rescue (activation)” value was inactive: 13.3%. With `COc1ccc(-c2nc3n(n2)C(=O)CC(c2ccc(Cl)cc2)S3)cc1` (stereo not drawn) the “growth rescue (activation)” value was inactive: 12.9%. With `CCOC(=O)c1ccc(NC(=O)CC2NCCNC2=O)cc1` (stereo not drawn) the “growth rescue (activation)” value was inactive: 1.24%. In the case of `CCCCN(C)c1c(C)nc2ccc(C(=O)N3CCN(C(C)=O)CC3)cn12`, the “growth rescue (activation)” value is reported as inactive: -5.57%. For `CC12CCC(C(=O)N(c3cccc(Cl)c3)C1=O)C2(C)C` (stereo not drawn), the “growth rescue (activation)” value was inactive: -4.17%. In the case of `CN1/C(=C\C(=O)COC(=O)c2ccc(O)c(O)c2)C(C)(C)c2ccccc21`, the “growth rescue (activation)” value is reported as inactive: 32.4%.
